Data as given in the RNAGym collection of RNA variant scans (doi:10.7554/elife.90254).
The source gives no read counts; variants with many changes may rest on few reads.

B1: LINE1-mini (parent)
chain: GGCAGAGCUCAACACAGCGUGGCAAAGUGGCUGUGGCUAGACUGCC

Variants of: B1
Test: self-cleavage, relative activity (ratio to wild type); higher = more cleavage; in vitro, sequencing; the parent is a self-cleaving ribozyme
For GGCAGAGCACAACCCAGCGUGGCAAAGUGGCUGUGGCUAGACUGCA [U9A A14C C46A], the self-cleavage was 0.02. Variant GGCAGAGCACAACACAGCGUGGCAUAGUGGCUGUAGCUAGACUGCC [U9A A25U G35A] has a self-cleavage of 0.08. Variant GGCAGAGCACAAAACAGCGUGGCAAAGUGGCUGUGGAUAGUCUGCC [U9A C13A C37A A41U] has a self-cleavage of 0.63. GGCAGAGCACAUCACAGCGUGGCAAAGUGGCUGUGGCUAGACCGCC [U9A A12U U43C] showed a self-cleavage of 0.05. With GGCAGAGCACAACAAAGCGUGGCAAAGUGGCUGUGGCAGGUCUGCC [U9A C15A U38A A39G A41U] the self-cleavage was 0.3. Work on GGCAGAGCAGAACACAGCGUGGCACAGUGGCUGGGGCUUGACUGCC [U9A C10G A25C U34G A39U] yielded a self-cleavage of 0.01. In the case of GGCAGAGCACAACACAGCGUGGCAACGUGGCUGUGGCUAUACUGCC [U9A A26C G40U], the self-cleavage is reported as 0.02. GGCAGAGCAAAACACAGCGUGGCAAAGCGGCGGUGGCUAGACUGCC [U9A C10A U28C U32G] showed a self-cleavage of 0.01. Variant GGCAGAGCACAACACAGCGUGGCAAUGUGGCUGUAGCUAGACUGCC [U9A A26U G35A] has a self-cleavage of 0.02. Work on GGCAGAGCACAACAAAGCGUGGCAAAGUGGCUGUGGCUAGACUGCA [U9A C15A C46A] yielded a self-cleavage of 0.05. With GGCAGAGCACAACACAGCGUGGCCCAGUGGCUGUGGCUAGACUGCC [U9A A24C A25C] the self-cleavage was 0.13. Work on GGCAGAGCACAACAAAGCGUGGCAAAGUGGCUGUGGCUUGUCUGCC [U9A C15A A39U A41U] yielded a self-cleavage of 0.61. GGCAGAGCACAACUAACCGUGGGCAAGUGGCUGUGGCUAGACUGCC [U9A A14U C15A G17C C23G A24C] gave a self-cleavage of 0.06. GGCAGAGCAGAACACAGCGUGGCAAAGUGGCUGUGGCUAGGCUGCC [U9A C10G A41G] gave a self-cleavage of 0.01. GGCAGAGCACAUCACAGAGUUGCAAAGUGGCUGUGGCUAGACUGCC [U9A A12U C18A G21U] gave a self-cleavage of 0.13. Variant GGCAGAGCACAACUCAGCGUGGCAAAGUGGGUGUGGCUAGACUGCC [U9A A14U C31G] has a self-cleavage of 0.01. GGCAGAGCACAACACAGCGUGGCAGACUGGCUGCGGCUAGACUGCC [U9A A25G G27C U34C] gave a self-cleavage of 0.31. GGCAGAGCAGAACACAGCGUAGCAAAGUGGCUGUGGCUAAACUGCC [U9A C10G G21A G40A] gave a self-cleavage of 0.01. With GGCAGAGCAAAACACAGCGUGGCAAAGUGGCUAUGGCUAGACUGCC [U9A C10A G33A] the self-cleavage was 0.06. In the case of GGCAGAGCAGAAGACAGGUUGGCAAAGUGGCUGUGGCUAGACUGCC [U9A C10G C13G C18G G19U], the self-cleavage is reported as 0.01. Variant GGCAGAGCACAACACAGCGUGGCUAAGUGGCUGUGGCUAGUCUGCC [U9A A24U A41U] has a self-cleavage of 0.32. GGCAGAGCAGAACACUGCGUGGCAAAGUGGCUGUGGCUAGACUGCC [U9A C10G A16U] showed a self-cleavage of 0.01. In the case of GGCAGAGCACAACAAAGCGUGGCAAAGUGGCUGUGACUAGACUGCC [U9A C15A G36A], the self-cleavage is reported as 0.08. In the case of GGCAGAGCAAAACACGGCGUGGCAAAGUGGCUGUGGCUAAACGACC [U9A C10A A16G G40A U43G G44A], the self-cleavage is reported as 0.01. With GGCAGAGCACAACACCGCGUGGCAAAGUGGCUGUCGCUAGACUGCC [U9A A16C G35C] the self-cleavage was 0.06. In the case of GGCAGAGCACAACUCAGCGUGGCAAAGUGGCGGUGGUUAGACUGCC [U9A A14U U32G C37U], the self-cleavage is reported as 0.03. In the case of GGCAGAGCACAAUACAGCGUGGCAAAGUGGCUGUGGCUAGACUGCA [U9A C13U C46A], the self-cleavage is reported as 0.24. Variant GGCAGAGCACAACAAAGCAUGGCAAAGUGGCUGUGGAUAGACUGCC [U9A C15A G19A C37A] has a self-cleavage of 0.05. Work on GGCAGAGCAAAACACAGAGUGGAAAAGUGGCUGUGGCUAGACUGCC [U9A C10A C18A C23A] yielded a self-cleavage of 0.03. Work on GGCAGAGCACAACUCAGAGUGGCAAAGUGGCUGUUGCUAGUCUGUC [U9A A14U C18A G35U A41U C45U] yielded a self-cleavage of 0.09. For GGCAGAGCACAAGACAUCGUGGCAAAGUGGGUGUGACUAGACUGCC [U9A C13G G17U C31G G36A], the self-cleavage was 0.13. Variant GGCAGAGCACAACACCGCGUGACAAUGUGGUUGGGGCUAGACUGCC [U9A A16C G22A A26U C31U U34G] has a self-cleavage of 0.03. For GGCAGAGCACAAGACAGCGUGCCAAAUUGGCUGUGGCAUGACUGCC [U9A C13G G22C G27U U38A A39U], the self-cleavage was 0.05. Variant GGCAGAGCACAACAAAGCAUGGCAAAGUGGCUGUGGCUAGACUGCC [U9A C15A G19A] has a self-cleavage of 0.11. For GGCAGAGCAUAACACAGCGUGGCAAAGUGGCUGUGGCUAGACUACC [U9A C10U G44A], the self-cleavage was 0.04. Variant GGCAGAGCACAACACAGCGUGGCGAACUGGCUCCGGCUAGACUGCC [U9A A24G G27C G33C U34C] has a self-cleavage of 0.06. With GGCAGAGCACAACACUGCGUGGCAAAGUUGCUGUGGCUAGACUGCC [U9A A16U G29U] the self-cleavage was 0.07. In the case of GGCAGAGCACAAUACAGCGGGGCAAAGUGGCUGUGGCUAGACUGCC [U9A C13U U20G], the self-cleavage is reported as 0.24. Work on GGCAGAGCACAACACCGCGUGGCAAAGUGGGUGUGGCUAGAGUGCC [U9A A16C C31G C42G] yielded a self-cleavage of 0. With GGCAGAGCACAAGACAGUGUGGCAAAGUGGCUGUGGCUAGACUGCC [U9A C13G C18U] the self-cleavage was 0.02. GGCAGAGCACAUCACAGCGUGGCAAAAUGGCUGUUGCUACACUGCC [U9A A12U G27A G35U G40C] showed a self-cleavage of 0. In the case of GGCAGAGCAGAACACAGCGGGGCAAAGUGGCUGUGGCUAGACUGCC [U9A C10G U20G], the self-cleavage is reported as 0.04. For GGCAGAGCACAACAAAGCGUGGCAAAGUGGCUGUGGCUAAACUGCU [U9A C15A G40A C46U], the self-cleavage was 0.08. GGCAGAGCACAACACAGCGUGGCAAAGUGGCUGUGGCUAGCAUGCC [U9A A41C C42A] gave a self-cleavage of 0.02. Variant GGCAGAGCACAUCACAGCGUGGGAAAGUGUCUGUGGCUAGACUGCC [U9A A12U C23G G30U] has a self-cleavage of 0. Work on GGCAGAGCACAACACGUCGUGGCAACGUGGCUGUGGCUAGACUGCC [U9A A16G G17U A26C] yielded a self-cleavage of 0.04. Variant GGCAGAGCACAAUACAGAGUGGCAAAGUGGGUGUGGUUAUACUGCC [U9A C13U C18A C31G C37U G40U] has a self-cleavage of 0.01. GGCAGAGCACAACACCUCGGGGAAAAGUGGCUGUGGCUAGACUGAC [U9A A16C G17U U20G C23A C45A] showed a self-cleavage of 0.19. Variant GGCAGAGCAUGACACAGCGUGGCAUGGUGGCUGUGGCUAGACUGCC [U9A C10U A11G A25U A26G] has a self-cleavage of 0.02. GGCAGAGCACAACGCAGCGCGGCUAAGUGGCUGUGGCUAGACUGCC [U9A A14G U20C A24U] showed a self-cleavage of 0.07. GGCAGAGCACAAAACAGCGUGGCAUAGUGGCUGUGGCUAGACUCCC [U9A C13A A25U G44C] showed a self-cleavage of 0.05. Work on GGCAGAGCAGAACAUAGCGUGGUAAAGUGGCUGUGGCUAGACUGCC [U9A C10G C15U C23U] yielded a self-cleavage of 0.01. Work on GGCAGAGCACAACACCGCGUGGCAAAGUGGCUGUGGCUACACUGCA [U9A A16C G40C C46A] yielded a self-cleavage of 0.07. GGCAGAGCACAACACUGCUUGGCAAAUCGGCUUUGGCUAGACUGCC [U9A A16U G19U G27U U28C G33U] gave a self-cleavage of 0.22. Work on GGCAGAGCAGAACAGAGCUUGGCAAAGUGGCUGUGGCAAGACUGCC [U9A C10G C15G G19U U38A] yielded a self-cleavage of 0.02. With GGCAGAGCAGAACACAGCGUGGCAAAGAGGCUGUGGCUAGACUCCC [U9A C10G U28A G44C] the self-cleavage was 0.03.
